{
  "source": "PubChem BioAssay AID1476",
  "about": "(National Center for Advancing Translational Sciences (NCATS), 2009)",
  "note": "Hit rate of the full screen: of about 200,000 compounds, about 4,500 (2.2%) were called active. Inconclusive results, whose numbers are uncertain, are shown with a selection of clear calls. Calls come from the whole dose curve; as a rule, active = well fitted inhibition curve with a large enough effect; inconclusive = small, poorly fitted or top-dose-only effect, or effect the other way; inactive = flat fitted curve, though single readings scatter. A potency beside an inconclusive call is a rough fit, not a confirmed value. Potency is the fitted concentration of half-maximal effect; tags give direction and shape of the fitted curve.",
  "data": [
    {"biological_target": "Cruzipain (Trypanosoma cruzi) (UniProt P25779)", "sequence (P25779 whole entry, looked up)": "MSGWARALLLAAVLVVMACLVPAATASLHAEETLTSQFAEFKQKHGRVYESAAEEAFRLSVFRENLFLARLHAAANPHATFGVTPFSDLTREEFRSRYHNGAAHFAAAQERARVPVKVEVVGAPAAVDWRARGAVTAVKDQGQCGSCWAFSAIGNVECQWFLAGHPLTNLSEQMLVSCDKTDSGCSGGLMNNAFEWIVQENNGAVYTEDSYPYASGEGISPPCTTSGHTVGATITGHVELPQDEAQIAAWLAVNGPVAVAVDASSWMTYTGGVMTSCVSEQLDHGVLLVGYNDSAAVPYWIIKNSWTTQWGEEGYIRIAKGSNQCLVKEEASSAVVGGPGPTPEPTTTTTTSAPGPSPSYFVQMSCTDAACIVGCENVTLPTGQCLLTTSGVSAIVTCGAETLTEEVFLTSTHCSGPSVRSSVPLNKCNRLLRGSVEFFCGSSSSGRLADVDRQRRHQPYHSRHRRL", "test": "qHTS Assay for Promiscuous and Specific Inhibitors of Cruzain (without detergent); note: nearly all actives have a fitted effect of over 40% in size;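 for max response, negative = inhibition: plate controls were enzyme without inhibitor for no effect and buffer without enzyme for full effect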", "conditions": "purified cruzain, Z-FR-AMC fluorescence, no detergent", "outline": "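Purified cruzain at 1.5 nM, pre-incubated 15 min with compound at room temperature in 100 mM sodium acetate pH 5.5, 5 mM DTT, 0.00005% Triton X-100. Reaction started with 2 uM Z-FR-AMC; AMC fluorescence increase over 60 s gives rate.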", "values": [
      {"smiles": "CC(C)(C)OC(=O)NCCc1nnc(SCc2ccc(Cl)cc2Cl)o1", "Potency": "inconclusive: 25.1 µM [activator, single point]"},
      {"smiles": "Cc1cc(NC(=O)CCCSc2nc(-c3ccco3)cc(C(F)(F)F)n2)n(-c2ccccc2)n1", "Potency": "inconclusive: 31.6 µM [activator, single point]"},
      {"smiles": "O=C(/C=C/NNC(=O)c1cccc(Br)c1)c1ccccc1", "Potency": "inconclusive: 31.6 µM [inhibitor, single point]"},
      {"smiles": "Cc1ccc(CNC(=O)c2ccccc2NC(=O)c2nsc3ccccc23)cc1", "max response, negative = inhibition": "inactive: -12.3%"},
      {"smiles": "O=C(/C=C/c1ccc2c(c1)OCO2)Nc1cc(S(=O)(=O)N2CCOCC2)ccc1N1CCOCC1", "Potency": "inconclusive: 39.8 µM [activator, single point]"},
      {"smiles": "COc1ccc(-c2c(C)c3ccc(O)c(CN4CCCC4)c3oc2=O)cc1", "max response, negative = inhibition": "inactive: 3.36%"},
      {"smiles": "CCOc1ccc(S(=O)(=O)NCCC(=O)OC(C)C(=O)N2CCc3ccccc32)cc1", "note": "(centres undefined)", "Potency": "inconclusive: 39.8 µM [activator, single point]"},
      {"smiles": "O=C(O)CNCCc1ccccc1", "max response, negative = inhibition": "inactive: -5.33%"},
      {"smiles": "CCc1c(CN2CCN(c3ccccc3F)CC2)csc1C", "max response, negative = inhibition": "inactive: 10.6%"},
      {"smiles": "CC1Cc2ccccc2N1C(=O)c1cc2sccc2n1Cc1ccc(F)cc1", "note": "(centres undefined)", "Potency": "inconclusive: 31.6 µM [inhibitor, single point]"},
      {"smiles": "Cc1ccc2nc(SCC(=O)NCc3ccco3)c(C#N)cc2c1", "Potency": "active: 25.1 µM"},
      {"smiles": "CCOC(=O)C1(S(=O)(=O)c2ccc(Cl)cc2)CCN(Cc2ccc(Cl)cc2)CC1", "max response, negative = inhibition": "inactive: 3.24%"},
      {"smiles": "Cc1cccc(N2CCN(C(=O)CN3C(=O)COc4ccc(S(=O)(=O)N5CCCC5)cc43)CC2C)c1", "note": "(centres undefined)", "Potency": "inconclusive: 39.8 µM [activator, single point]"},
      {"smiles": "CC(C)c1ccccc1NC(=O)Cn1c(-c2ccccc2Cl)nc2ccccc21", "Potency": "inconclusive: 39.8 µM [activator, single point]"},
      {"smiles": "Cc1cc(NC(=O)c2cnc3c(-c4ccccc4)c(C)nn3c2C)ccc1Br", "Potency": "inconclusive: 39.8 µM [inhibitor, single point]"},
      {"smiles": "Cc1ccc(C)c(N2CCN(C(=O)CS(=O)(=O)c3cccc4nsnc34)CC2)c1", "Potency": "inconclusive: 39.8 µM [activator, single point]"},
      {"smiles": "Cc1ccccc1NC(=O)C1C2/C=C\\CCCCC21", "note": "(centres undefined)", "Potency": "inconclusive: 39.8 µM [inhibitor, single point]"},
      {"smiles": "O=C1CSC(=S)N1/N=C/C=C/c1ccccc1", "Potency": "active: 31.6 µM"},
      {"smiles": "CS(=O)(=O)N(CC(O)CON=C1c2ccccc2-c2ccccc21)c1ccc(F)cc1", "note": "(centres undefined)", "Potency": "inconclusive: 31.6 µM [activator, single point]"}
    ]}
  ]
}
